Reference: the supplement of paper PMC3334620
The full ranking holds about 33,000 sequences; the median of “E-score (-0.5 to 0.5)” is about -0.013, and the highest 2% start at about 0.3. The list shows a part of the results.

These sequences were tested against T1, Msn1 (UniProt P22148) (assay: PBM E-score (8-mer binding enrichment) (E-score (-0.5 to 0.5)); higher = stronger / more preferred TF binding; most listed sequences are background and not binding sites). Settings: protein concentration: 200 nM; construct: GST-full length.
T1 sequence: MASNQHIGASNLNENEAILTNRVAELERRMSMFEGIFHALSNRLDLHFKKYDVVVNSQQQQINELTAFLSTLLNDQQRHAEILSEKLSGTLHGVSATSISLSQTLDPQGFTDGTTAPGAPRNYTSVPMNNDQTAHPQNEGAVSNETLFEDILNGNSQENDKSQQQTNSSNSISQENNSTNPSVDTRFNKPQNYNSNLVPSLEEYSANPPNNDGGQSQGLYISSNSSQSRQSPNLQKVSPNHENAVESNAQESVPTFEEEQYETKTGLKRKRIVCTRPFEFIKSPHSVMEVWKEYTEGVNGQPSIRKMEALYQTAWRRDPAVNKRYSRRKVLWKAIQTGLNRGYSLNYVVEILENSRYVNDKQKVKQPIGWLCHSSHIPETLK
In short: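 The E-score, a modified Wilcoxon-Mann-Whitney statistic, was computed by the Universal PBM Analysis Suite for every ungapped eight-base word pooled with its reverse complement. Scans behind it were normalised with masliner after bound GST-tagged yeast transcription factors were detected with fluorescent anti-GST. The proteins, at about 100-200 nM, had been applied to universal all-10-mer Agilent arrays made double-stranded by primer extension.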

Sequence | PBM E-score
ACATATAG | 0.267
CTCCACCC | -0.277
GTCAGGGA | -0.0927
TACGGATA | 0.0192
AGCATAAC | -0.0992
GCTCGGTA | -0.153
ATTGACTC | 0.0316
ATGTTCGA | 0.0589
CAAAATAA | 0.113
ACGTCCTC | 0.0204
AGATACGC | -0.167
GATGACCA | 0.0847
ATTCTACC | 0.0219
CACATATC | 0.0551
ATCTGAGA | 0.0879
ATACAAGC | -0.0673
CGACTGGC | -0.241
ACATGTGA | 0.113
CAGGGTGG | -0.352
CTGTTGAC | 0.0769
ACTTTATA | 0.158
CGACCTAG | 0.0563
AATACACC | 0.0912

Sequence | PBM E-score
AGGAATGG | -0.109
GATCATAC | 0.0678
AGACTTCC | -0.108
CTTTGTCA | 0.311
ACCGCAAG | -0.0142
ATAACGTC | 0.0296
GCTTGAAA | 0.0109
GCGCTTCC | -0.0102
GCCCCAAA | -0.137
GGCAGACA | 0.079
TCGCTTCA | 0.106
TCTCTACA | -0.0107
GCGGTCCC | -0.188
ATGAAAGC | 0.12
AGGCACGA | -0.126
TTAGGGAA | -0.0343
CAGAGAAC | -0.146
CCTCGATA | 0.0693
GCTTCCTA | -0.0319
AACAAACG | 0.0707
AGTCTGGA | 0.193
GACTGCCA | 0.0949
GCCGCCCA | -0.112

Sequence | PBM E-score
ACGTGCCC | -0.0491
AGTCAAAG | -0.147
ACGCACAA | 0.0214
AATGAAGG | -0.0295
CGGATTAC | -0.0248
CACGCCTA | -0.044
CCTAGAGC | -0.184
GGCTTTCA | 0.0705
CGTTGGAG | -0.0599
GTTTCACA | 0.0254
CAGATTTC | -0.0498
ACAGTTTA | 0.0633
GGGGATAC | -0.121
CAAGTCAC | -0.0288
GAGCACCC | -0.291
CGCAACGC | 0.0454
GCGCACAC | 0.0127
CTGTAAGA | 0.025
CCGTCTAA | -0.0789
AAGGCGAG | -0.169
GTTGAAAA | 0.0587
